Measured values from PubChem BioAssay AID602340 (Broad Institute, 2012).
Several values for one entry are separate records, joined by “and”; a condition that tells them apart may be missing. Identical values can stand only once. Among all 330,000 compounds or so, about 2,600 (0.79%) were called active. Inconclusive means that the source gave no clear call. Such entries were picked first, then a sample of the others.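 How the source made its calls: active means mean ATP rescue above about 67%, or every replicate alone reaching that limit (limit read from the data, passing the limit was not always enough); inconclusive means no clear call, values can overlap the other calls; inactive means mean under the limit and some replicate under it.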

Experiment: suppressors of statin myotoxicity in C2C12 myotubes, primary screen, cell-based, single point, plate reader (AID 602340);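 further: myotubes were challenged with 10 µM simvastatin during compound exposure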
Settings: C2C12 myotubes + simvastatin, ATP luminescence, 48 h; at 7.49 µM; stronger effect = higher value; scaled: DMSO 0, geranylgeraniol control 100

| Compound | rescue of ATP level |
| --- | --- |
| COc1ccc(CCNC(=O)Cn2cnc3c(nnn3Cc3ccc(C)cc3)c2=O)cc1OC | inconclusive: 65.2% |
| COc1ccc(NC(=O)Nc2cccc3c2O[C@@H](CN(C)C(=O)Nc2cccc4ccccc24)[C@@H](C)CN([C@H](C)CO)C3=O)cc1 | inconclusive: 70.1% |
| C[C@H]1CN([C@@H](C)CO)C(=O)c2cc(/C=C/c3ccccc3)cnc2O[C@@H]1CN(C)C(=O)Nc1ccccc1F | inconclusive: 45.9% |
| C[C@H](CO)N1C[C@H](C)[C@H](CN(C)Cc2ccc3c(c2)OCO3)Oc2c(NC(=O)c3ccc(-c4nccs4)cc3)cccc2C1=O | inactive: -36.3% |
| COc1ccc(NC(=O)c2ccc3c(c2)n(C)c(=O)n3C)cc1 | inactive: -3.7% |
| C[C@H]1CN([C@@H](C)CO)S(=O)(=O)c2ccc(C#CC3CCCCC3)cc2O[C@H]1CN(C)C(=O)Cc1ccncc1 | inconclusive: 79.4% |
| NS(=O)(=O)c1ccc(NC(=O)COC(=O)c2ccc([N+](=O)[O-])s2)cc1 | inconclusive: 10.6% |
| O=C(Nc1ccccc1Cl)NC1(C(=O)N2CCCCC2)CCCCC1 | active: 101% |
| COc1ccc(S(=O)(=O)Nc2ccc3c(c2)CC(=O)N([C@H](C)CO)C[C@@H](C)[C@@H](CN(C)Cc2ccc(C(F)(F)F)cc2)O3)cc1 | inconclusive: 90.5% |
| COc1ccccc1-n1nnnc1SCC(=O)Nc1ccccn1 | active: 72.3% |
| CN1CCN(C(=O)CN2C(=O)CC(C)(C)S(=O)(=O)c3ccccc32)CC1 | inactive: 17.3% |
| C[C@@H]1CN([C@@H](C)CO)C(=O)c2cc(NS(=O)(=O)c3ccccc3)ccc2O[C@@H]1CN(C)Cc1ccncc1 | inactive: 16.9% |
| Cc1ccc(S(=O)(=O)CCC(=O)Nc2nc(-c3ccncc3)cs2)cc1 | inactive: -16.4% |
| COC(=O)CSc1nc2sc3c(c2c(=O)n1-c1ccc(OC)cc1)CCN(C)C3 | inactive: -5.54% |
| COCC(=O)N(C)C[C@H]1Oc2ncc(-c3ccccc3C)cc2C(=O)N([C@H](C)CO)C[C@@H]1C | inactive: 24.6% |
| C[C@@H]1CN([C@@H](C)CO)C(=O)c2cccc(NS(=O)(=O)c3cccs3)c2O[C@@H]1CN(C)Cc1ccncc1 | inactive: -2.78% |
| O=C(NC1Cc2ccccc2C1)[C@H]1[C@H](CO)[C@H]2Cn3c(cccc3=O)[C@H]2N1C(=O)c1cnccn1 | inconclusive: 70.2% |
| N#Cc1ccc(-c2ccc(OCC(O)CN3CCCCC3)cc2)cc1 (stereo not given) | inconclusive: 29% |

| Compound | rescue of ATP level |
| --- | --- |
| Cn1cc(C(c2ccccc2OCC(=O)O)c2cn(C)c3ccccc23)c2ccccc21 | inconclusive: 78.2% |
| C[C@H](CO)N1C[C@H](C)[C@@H](CN(C)C(=O)Nc2cccc3ccccc23)OCc2cnnn2CCCC1=O | inactive: 12.9% and inactive: 10.8% |
| O=C(Nc1cccc(S(=O)(=O)c2cccc(NC(=O)C3CC3)c2)c1)C1CC1 | inactive: -1.19% |
| Cc1ccc(S(=O)(=O)Nc2ccc3c(c2)C(=O)N([C@@H](C)CO)C[C@@H](C)[C@@H](CN(C)Cc2ccc(Cl)c(Cl)c2)O3)cc1 | inconclusive: 69.5% |
| COCC#Cc1cnc2c(c1)C(=O)N([C@@H](C)CO)C[C@H](C)[C@H](CN(C)C(=O)c1cnccn1)O2 | inactive: -6.78% |
| CCc1cccc(C)c1NC(=O)c1cc(C)oc1C | inconclusive: 83.9% |
| Cc1noc(C)c1NC(=O)Nc1ccc2c(c1)CC(=O)N([C@H](C)CO)C[C@@H](C)[C@@H](CN(C)Cc1ccccc1)O2 | inactive: 0.978% |
| O=C(CN1CCCCC1)Nc1ccc(C(F)(F)F)cc1Cl | active: 90.6% |
| Cc1noc(C)c1NC(=O)Nc1ccc2c(c1)C(=O)N([C@H](C)CO)C[C@@H](C)[C@H](CN(C)C(=O)Nc1cccc3ccccc13)O2 | inconclusive: 67% |
| Cc1ccc(S(=O)(=O)Nc2ccc3c(c2)C(=O)N([C@@H](C)CO)C[C@H](C)[C@H](CN(C)Cc2ccc(C(F)(F)F)cc2)O3)cc1 | inconclusive: 70.5% |
| COc1ccc(NC(=O)COC(=O)CN2C(=O)C3CC=CCC3C2=O)c([N+](=O)[O-])c1 (stereo not given) | inactive: -1.99% |
| CNC(=O)COC(=O)c1[nH]c(C)c(C(C)=O)c1C | inactive: -11.1% |
| Cc1cc(C)c(C(=O)/C=C/c2ccc(C(C)C)cc2)c(=O)[nH]1 | inconclusive: 77.6% |
| c1ccc(Cn2nnnc2C(c2cccs2)N2CCc3ccccc3C2)cc1 (stereo not given) | inconclusive: 79.4% |
| C[C@H]1CN([C@@H](C)CO)C(=O)c2cccc(NC(=O)Nc3ccc4c(c3)OCO4)c2O[C@H]1CN(C)S(=O)(=O)c1cccs1 | inconclusive: 74.3% |
| O=C(NCc1ccccc1)C1=C[C@@H](c2ccccc2)C[C@@H](OCc2ccc(CO)cc2)O1 | inactive: 5.62% |
| O=C(OCC(=O)c1ccccc1)C1=NN(c2ccccc2)C(=O)CC1 | inactive: 8.08% |
